Measurements as given in a collection of fitness landscapes (doi:10.1016/j.celrep.2020.107928).
The full ranking holds about 81,000 sequences; the median of “one-hybrid fitness for binding NBS DNA” is about -0.1, and the highest 2% start at about 0.36. Some of the results follow.

B1: Caulobacter ParB omega fusion; a variant is named by its letters at X, in order, B8GW30 (parent)
chain: MESVVVGEPGMSEGRRGLGRGLSALLGEVDAAPAQAPGEQLGGSREAPIEILQRNPDQPRRTFREEDLEDLSNSIREKGVLQPILVRPSPDTAGEYQIVAGERAWRAAQRAGLKTVPIMVRELDDLAVLEIGIIENVQRADLNVLEEALSYKVLMEKFERTQENIAQTIGKSXSHVANXMRLLXLPDEVQSYLVSGELTAXHARAIAAAADPVALAKQIIEGGLSVRETEALARKAPNLSAGKSKGGRPPRVKDTDTQALESDLSSVLGLDVSIDHRGSTGTLTITYATLEQLDDLCNRLTRGI

Variants of: B1
Test: one-hybrid fitness for binding NBS DNA (the Noc-binding site; scaled: cognate 1, non-cognate 0); higher = stronger binding
Details: with NBS DNA site
Procedure, shortened: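 Caulobacter ParB libraries with four specificity codons randomised were screened by bacterial one-hybrid selection in the E. coli USO strain, using a HIS3 reporter whose site lies 19 bp from the promoter. Selection ran for 48 hours at 37°C on M9 lacking histidine, with 0.1 mM IPTG and 5 mM 3-AT. Plasmids were Illumina-sequenced before and after selection, three replicate libraries were pooled, and variants with under 10 reads were dropped. Fitness is the log change in each variant's read ratio to wild type, rescaled against the cognate and non-cognate sites.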

Variant	one-hybrid fitness for binding NBS DNA
RLNS	0.493
PNYT	≤ 0.2
HAVV	≤ 0.2
SLMV	≤ 0.2
PSCE	≤ 0.2
VCHT	≤ 0.2
LSAP	≤ 0.2
ARSL	≤ 0.2
ENLA	≤ 0.2
VCCT	≤ 0.2
KKYD	≤ 0.2
HWHG	≤ 0.2
TSAS	≤ 0.2
RFAI	≤ 0.2
MPSG	≤ 0.2
RERH	≤ 0.2
HLGC	≤ 0.2
RLMM	≤ 0.2
NMAF	≤ 0.2
MNKG	≤ 0.2
SAFW	≤ 0.2

Variant	one-hybrid fitness for binding NBS DNA
CLMC	≤ 0.2
VCML	≤ 0.2
QRPR	0.543
WDKP	≤ 0.2
NVDD	≤ 0.2
LECT	≤ 0.2
ANNS	≤ 0.2
VEQG	≤ 0.2
NLHV	≤ 0.2
TQDV	≤ 0.2
PFDN	≤ 0.2
LCRW	≤ 0.2
GRMY	≤ 0.2
VLQV	≤ 0.2
HQMS	≤ 0.2
WFQG	≤ 0.2
SHLE	≤ 0.2
VDCS	≤ 0.2
RLKI	≤ 0.2
LHSS	≤ 0.2
LGPG	≤ 0.2

Variant	one-hybrid fitness for binding NBS DNA
RLKA	0.335
IDPE	≤ 0.2
NYRC	≤ 0.2
HAWM	≤ 0.2
AFVT	≤ 0.2
YKGG	≤ 0.2
SREN	≤ 0.2
LKRW	≤ 0.2
STPQ	≤ 0.2
ISPY	≤ 0.2
MAKT	≤ 0.2
NLKK	≤ 0.2
VDSH	≤ 0.2
THMC	≤ 0.2
RNYC	≤ 0.2
LAIE	≤ 0.2
KKRS	0.324
SFNG	≤ 0.2
SHGL	≤ 0.2
TDSY	≤ 0.2
SDGQ	≤ 0.2

Variant	one-hybrid fitness for binding NBS DNA
MCCL	≤ 0.2
HLGD	≤ 0.2
RATQ	≤ 0.2
QSTW	≤ 0.2
NCHT	≤ 0.2
VKVF	≤ 0.2
SDHR	≤ 0.2
CYWS	≤ 0.2
YISR	≤ 0.2
PPAF	≤ 0.2
EADY	≤ 0.2
PSVV	≤ 0.2
SAKE	≤ 0.2
RPQL	≤ 0.2
VAQY	≤ 0.2
PDPC	≤ 0.2
PRHP	≤ 0.2
QQWM	≤ 0.2
MVSL	0.305
QRQG	0.366
TGTC	≤ 0.2
